Results published in PubChem BioAssay AID1347073 (National Center for Advancing Translational Sciences (NCATS), 2019).
Screen size: about 45,000 compounds; about 200 (0.44%) were called active. Inconclusive results (about 7%) are left out. Calls come from the whole dose curve; as a rule, active = well fitted activation curve with a large enough effect; inconclusive = small, poorly fitted or top-dose-only effect; inactive = no such curve, though single readings can be large or run the other way. The list shows a part of the results.

Assay: qHTS of TDP-43 Inhibitors: NCGC Sytravon Library Screen; note: 0% is about no effect; nearly all actives have a fitted effect of over 55% in size
Conditions: yeast TDP-43 toxicity rescue, BacTiter-Glo growth, 24 h; series mostly up to 46.1 µM; growth rescue (activation): at the top concentration
Method in brief: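 TDP-43-expressing yeast, pregrown in raffinose, seeded at OD600 0.02 in galactose medium with compound for 24 hr at 30 deg C. Growth read by BacTiter-Glo luminescence, so rescue of toxicity appears as activation.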

Compound	growth rescue (activation)
COc1ccccc1NC(=O)N1CCCC1C(=O)NCc1cccs1 (configuration not stated)	inactive: -7.13%
COc1ccc(NC(=O)COc2ccc(C(=O)OCC(=O)N(C(C)C)C(C)C)cc2OC)cc1	inactive: 8.22%
Cn1c(CNc2cccc(C(F)(F)F)c2)n[nH]c1=S	inactive: 7.25%
CCOc1ccc(/C=N/NC(=O)C(C)Sc2ccccn2)cc1OCC (configuration not stated)	inactive: -0.858%
CCOC(=O)C1CCCN(C(=O)c2cc(F)cc(F)c2)CC1 (configuration not stated)	inactive: 8.32%
Cc1ccc(-c2cc(C(=O)NC3CCCCC3)no2)cc1	inactive: 19.2%
CC(=O)Nc1ccc(-c2nc3ccccc3c(=O)o2)cc1	inactive: 7.17%
Cc1ccc(/C(O)=C2\C(=O)C(=O)N(Cc3cccnc3)C2c2ccccc2[N+](=O)[O-])cc1 (configuration not stated)	inactive: 7.57%
CC(=O)Nc1ccc(S(=O)(=O)NNC(=O)COc2cccc3ccccc23)cc1	inactive: 11.3%
COc1cc(NC(=S)N2CCc3ccccc3C2)cc(OC)c1	inactive: 3.77%
CC(C)Cc1nc(S(=O)(=O)c2ccc(Cl)cc2)c(N2CCOCC2)o1	inactive: -8.05%
O=C(NCCCn1ccnc1)c1cc2ccccc2oc1=O	inactive: 0.949%
Cc1ccc(NC(=O)CCn2c(=O)[nH]c3ccsc3c2=O)cc1C	inactive: 15.1%
CN(C)CCCNc1c2ccccc2nc2ccccc12	inactive: 9.8%
CCOC(=O)C1(Cc2cccc(OC)c2)CCN(C/C=C/c2ccccc2)CC1	inactive: 12.9%
COCCn1c(CN2CCN(C(c3ccccc3)c3ccccc3)CC2)nc2c1c(=O)n(C)c(=O)n2C	inactive: 4.17%
COc1cc(C(=O)O/N=C2/C=C(C)C(=O)C=C2C)cc(OC)c1OC	inactive: 3.44%
CC(C)C(c1nnnn1Cc1ccc(F)cc1)N1CCN(c2ccc(O)cc2)CC1 (configuration not stated)	inactive: 4.99%
C=CCn1cnnc1SCC(=O)N(C)CC1COc2ccccc2O1 (configuration not stated)	inactive: 15.8%
O=c1[nH]c2cc([N+](=O)[O-])c(NCCO)c([N+](=O)[O-])c2[nH]1	inactive: -15.9%
CN(CC(=O)Nc1ccc(Cl)c(Cl)c1)C(=O)/C=C/c1ccc(F)cc1	inactive: 2.97%
CC(Sc1nnc(Cc2cccs2)n1C1CC1)C(=O)NC1CCS(=O)(=O)C1 (configuration not stated)	inactive: 9.47%

Compound	growth rescue (activation)
CN(C(=O)c1ccccc1C(=O)OCC(=O)NCc1cccs1)C1CCCCC1	inactive: 5.94%
COc1cccc(/C=N/Nc2nccnc2Cl)c1O	inactive: 22%
CCOc1cccc(NC(=O)CSc2sc3c(O)cc(=O)[nH]c3c2C#N)c1	inactive: 11.9%
O=C(CN(CCc1ccccc1)S(=O)(=O)c1ccc(Br)cc1)N/N=C/c1ccccc1C(=O)O	inactive: -0.575%
COc1ccc(NC(=O)CN2C(=O)C(c3ccccc3)=NC23CCC(C)CC3)cc1Cl (configuration not stated)	inactive: 13.3%
O=c1cc(O)c2sc3nc4c(c(C(F)(F)F)c3c2[nH]1)CCCCC4	inactive: 19.2%
COc1ccccc1C(=O)NNC(=O)C(=O)NC(C)C	inactive: -1.73%
NC(CCc1ccccc1)c1csc(Nc2ccc(C(=O)c3ccccc3)cc2)n1 (configuration not stated)	inactive: 9.46%
COc1ccc(S(=O)(=O)NC2CCCCC2)cc1C(=O)N1CCCCC1	inactive: -3.47%
COc1ccc([N+](=O)[O-])cc1NC(=O)Nc1ccc(OC)c(OC)c1	inactive: 0.82%
COc1cccc(/C(O)=C/c2nc3ccc(C(=O)NCCc4cccc(C)c4)cc3[nH]c2=O)c1	inactive: -17.3%
COc1ccc(C(C)(C)C)cc1NC(=O)CCNC(=O)c1ccco1	inactive: -2.33%
CNc1ccc(C2(O)C(=O)c3ccccc3C2=O)cc1	inactive: 3.74%
C=C(C)C(=O)Nc1cccc(C(C)=O)c1	inactive: 26.3%
Cc1ccc(NC(=O)CNCc2ccc(Cl)cc2Cl)cc1S(=O)(=O)N(C)C	inactive: 3.52%
O=C(COc1nsnc1N1CCOCC1)Nc1ccc(Br)cc1	inactive: 1.38%
COc1cc(NC(=O)c2ccc3c(SCC(=O)O)c4c(nc3c2)CCCC4)cc(OC)c1OC	inactive: 9.57%
Cc1ccc(Nc2nc(-c3ccc(O)c(O)c3)cs2)nc1	inactive: -15.2%
Cc1ccc(NC(=O)c2ccccc2NS(=O)(=O)c2ccc(F)cc2)cc1S(=O)(=O)N1CCCCC1	inactive: 5.66%
CCOCc1nnc(NC(=O)CS(=O)(=O)c2ccc(C)cc2)s1	inactive: -5.01%
Cc1ccc(CN(CC(=O)NCc2ccc3c(c2)OCO3)C(=O)c2csnn2)cc1	inactive: -4.62%
Cc1ccc(-c2n[nH]c(=S)n2/N=C/c2c(C)[nH]n(-c3ccccc3)c2=O)cc1	inactive: 13.3%

Compound	growth rescue (activation)
Cc1nc(SCC(=O)N2CCNC2=O)c2ccccc2n1	inactive: 17.5%
Cc1cc(NC(=O)CN2CCN(C)CC2)no1	inactive: -11.2%
CCOc1ccccc1CN1CCN(C2CCOCC2)CC1CCO (configuration not stated)	inactive: 14.4%
CSC1=C(C#N)C(C)CC(=O)N1 (configuration not stated)	inactive: 13.5%
CCOCC(=O)Nc1ccc([N+](=O)[O-])cc1Cl	inactive: 1.7%
O=C(CC(=O)c1ccccc1)Nc1ccc(Cl)cc1	inactive: 7.07%
CC(=O)Nc1ccc(S(=O)(=O)Nc2cccc(NC(=O)c3ccco3)c2)cc1	inactive: 12.7%
Cc1ccccc1OCCC(=O)Nc1ccc(Cl)cc1F	inactive: 14.8%
O=C(NNC1=NCCCCC1)Nc1cccc(Cl)c1	inactive: 8.07%
CCC(=O)NC(=S)Nc1ccc2oc(-c3ccc(OC)cc3)nc2c1	inactive: -5.67%
CCCn1c(-c2cccc(F)c2)nc2c1c(=O)[nH]c(=O)n2Cc1ccccc1	inactive: -2.15%
COc1cccc(CN2CCNC(=O)C2CC(=O)N(Cc2cnn(C)c2)C(C)C)c1 (configuration not stated)	inactive: -0.466%
CCc1ccc(N2CC(C(=O)Nc3nc4ccc(S(C)(=O)=O)cc4s3)CC2=O)cc1 (configuration not stated)	inactive: 10.1%
Cc1ccc(S(=O)(=O)N2CCN(CC(=O)NC3CCCc4ccccc43)CC2)cc1C (configuration not stated)	inactive: 19.2%
COc1ccc(C2CC(=O)c3cnc(NC(=O)c4ccccc4)nc3C2)c(OC)c1 (configuration not stated)	inactive: 26.6%
COc1ccc(Cc2nnc(NC(=O)C3CC(=O)N(c4ccccc4C)C3)s2)cc1OC (configuration not stated)	inactive: -1.32%
COc1ccc(CNC(=O)CN(C(=O)c2snc(C(N)=O)c2N)c2cccc(F)c2)cc1	inactive: 7.49%
CCOc1ccc(NC(=S)N2CCN(S(C)(=O)=O)CC2)cc1	inactive: 6.57%
CCOC(=O)c1[nH]ncc1CN1CCCC(C(=O)c2ccc(SC)cc2)C1 (configuration not stated)	inactive: -19.3%
O=C(CCCNC(=O)c1ccc(Cl)cc1)Nc1ccccc1F	inactive: -6.12%
O=C(N/N=C/c1cccs1)c1cc(-c2ccc(Cl)s2)[nH]n1	inactive: 9.68%
CCC(=O)N1CCc2cc(Br)cc(S(=O)(=O)CCC(=O)NCC3CCCO3)c21 (configuration not stated)	inactive: -9.21%

Compound	growth rescue (activation)
O=C(COC(=O)Cc1ccccc1[N+](=O)[O-])NCc1ccc(F)cc1	inactive: 7.7%
Cc1ccc(C(=O)N/N=C\c2ccc([N+](=O)[O-])s2)cn1	inactive: 26.4%
CC(=O)NCC(=O)N1CCCC(C(=O)c2ccc(-c3ccccc3)c(F)c2)C1 (configuration not stated)	inactive: -2%
COCCNC(=S)N/N=C/c1c(C)[nH]c2ccccc12	inactive: 18.8%
Cc1csc(NC(=O)CSc2nc3[nH]ncc3c(=O)[nH]2)n1	inactive: 1.46%
CN1CCN(C(c2ccc(Cl)cc2)c2cc(Cl)c3cccnc3c2O)CC1 (configuration not stated)	inactive: -87.9%
Cn1c(CCN2CCN(c3ccccc3)CC2)nc2cc(NC(=O)c3ccco3)ccc21	inactive: 15.7%
NC(CCc1ccccc1)c1csc(Nc2ccc(C(=O)NCCO)cc2)n1 (configuration not stated)	inactive: 16.9%
C/C(N)=C(/C#N)C(=O)COC(=O)CNS(=O)(=O)c1ccc(F)c(F)c1F	inactive: 6.24%
O=C(O)COc1ccccc1C(Nc1cccnc1)c1cc(Cl)c2cccnc2c1O (configuration not stated)	inactive: 7.25%
Cn1ccnc1SCc1cn2cc(Br)ccc2n1	inactive: -1.51%
C/C(N)=C(/C#N)C(=O)COC(=O)c1cccc(O)c1	inactive: 5.12%
CC(NC(=O)c1ccccc1F)c1nnc(SCC(=O)Nc2nccs2)n1C (configuration not stated)	inactive: 11.9%
CC(=O)Nc1ccc(C(=O)N/N=C(\C)CC(=O)Nc2ccc(OCc3ccccc3)cc2)cc1	inactive: 19.1%
O=C(Nc1nc2ccccc2c(=O)[nH]1)c1ccccc1SCc1ccccc1	inactive: 0.215%
CCOC(=O)NC(N(O)c1cccc(Cl)c1)C(Cl)(Cl)Cl (configuration not stated)	inactive: 23.1%
CCOC(=O)N1CCN(Cc2nc3cc(NC(=O)CC(C)C)ccc3n2C(C)C)CC1	inactive: 11.9%
O=C(CCc1nc2ccccc2c(=O)[nH]1)Nc1ccc(F)cc1	inactive: -5.34%
O=C(NC1CCCC1)C1CCCN(C(=O)Nc2ccccc2)C1 (configuration not stated)	inactive: 5.64%
COc1ccc(C(=O)NCCCNC(=O)c2ccco2)cc1OC	inactive: -4.69%
CCn1cc(C(=O)O)c(=O)c2cnc(N3CCN(C(=S)NC(=O)c4ccc(F)c(F)c4)CC3)nc21	inactive: 8.34%
CC(C)(C)C(=O)NC(=S)Nc1ccc(Cl)c(C(=O)O)c1	inactive: 6.46%

Compound	growth rescue (activation)
Cc1nn(Cc2ccc(Cl)cc2)c(C)c1NC(=O)C1CC=CCC1C(=O)O (configuration not stated)	inactive: -1.53%
CC1CCN(Cc2csc(N)n2)CC1	inactive: 2.79%
COc1ccc(/C=N/n2c(C)cc(C)cc2=O)cc1	inactive: -3.3%
NNc1ccc2nnc(C(F)(F)C(F)(F)C(F)(F)F)n2n1	inactive: 0.412%
O=C(NC1CCCC1)C(c1cccnc1)N(CCc1ccccc1)C(=O)c1ccco1 (configuration not stated)	inactive: 5.42%
CN(c1cccc(NC(=O)CN(c2cccc(Cl)c2)S(=O)(=O)c2ccc(Cl)cc2)c1)S(C)(=O)=O	inactive: 4.75%
COc1ccc(C(=O)NC2CCN(C(=O)Nc3ccc(F)cc3)CC2)cc1	inactive: 4.62%
Cc1ccc(N2C(=O)C(CN(C)C)C2c2ccccc2)cc1 (configuration not stated)	inactive: -17%
Cc1cc(C)n(CC(=O)c2cccc([N+](=O)[O-])c2)n1	inactive: 2.6%
CCOC(=O)C(NC(=O)CC)(Nc1ccccc1)C(F)(F)F (configuration not stated)	inactive: 17.9%
CCCCNC(=O)c1cccc(NC(=O)C(=O)c2ccccc2NC(C)=O)c1	inactive: 2.9%
O=C(COC(=O)CNC(=O)c1ccc(Br)o1)Nc1ccccc1OC(F)F	inactive: -0.451%
CSc1ccc(/C=N/NC(=O)CN2CCN(Cc3ccccc3)CC2)cc1	inactive: -3.23%
CCCCCCSc1nc(N)c2c3c(sc2n1)CCCC3C (configuration not stated)	inactive: 11.3%
COc1ccc([N+](=O)[O-])cc1N(CC(O)CN(CC(C)C)CC(C)C)S(=O)(=O)c1ccc(C)cc1 (configuration not stated)	inactive: -6.92%
CCC(CC)NC(=O)CO/N=C/c1ccccc1OC(F)F	inactive: -4.98%
O=C(Cn1cc(/C=C\[N+](=O)[O-])c2ccccc21)Nc1ccccc1	inactive: 3.03%
COc1ccccc1OCC(=O)Nc1ccccc1C(=O)Nc1cccc(C(=O)O)c1	inactive: 9.3%
O=C(CC1CCC1)NC(c1ccccc1)c1ccccc1	inactive: -3.61%
